# Measurements reported in the supplement of paper PMC4967469.
# Columns and labels:
# Assay in all cases: Viability of human cancer cell lines after 72 h of drug (GDSC screen)
# NG-25 = compound: CCN1CCN(Cc2ccc(NC(=O)c3ccc(C)c(Oc4ccnc5[nH]ccc45)c3)cc2C(F)(F)F)CC1 [NG-25]; conditions: top dose 10.24 µM; top dose inferred
# Method: (§1)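 Human cancer cell lines in 384-well plates, medium with 10% serum, drug for 72 h over a 256-fold dose range (nine 2-fold or five 4-fold steps up to the top dose). Adherent lines were fixed and stained with the nucleic acid dye Syto60, suspension lines read with resazurin; signal relative to control wells, capped at 0 and 100%. One two-parameter sigmoid per drug and line, fitted in a mixed model over all curves with the slope shared within a line.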
# GSK-1904529A = compound: CCc1cc(Nc2nccc(-c3c(-c4ccc(OC)c(C(=O)Nc5c(F)cccc5F)c4)nc4ccccn34)n2)c(OC)cc1N1CCC(N2CCN(S(C)(=O)=O)CC2)CC1 [GSK-1904529A]; conditions: top dose 1.024 µM; top dose inferred
# Method: as §1
# PFI-1 = compound: COc1ccccc1S(=O)(=O)Nc1ccc2c(c1)CN(C)C(=O)N2 [PFI-1]; conditions: top dose 10 µM; top dose inferred
# Method: as §1
# Tipifarnib = compound: Cn1cncc1[C@@](N)(c1ccc(Cl)cc1)c1ccc2c(c1)c(-c1cccc(Cl)c1)cc(=O)n2C [Tipifarnib]; conditions: top dose 16 µM; top dose inferred
# Method: as §1
Cell Line,AUC (NG-25),IC50 (NG-25),AUC (GSK-1904529A),IC50 (GSK-1904529A),AUC (PFI-1),IC50 (PFI-1),AUC (Tipifarnib),IC50 (Tipifarnib)
"BHT-101 (thyroid, adherent)",0.823,6.3 µM,0.965,> 1.02 µM,0.717,2.63 µM,0.664,2.9 µM
"CCK-81 (large intestine, adherent)",0.88,9.51 µM,0.979,> 1.02 µM,0.986,> 10 µM,0.833,9.46 µM
"MDA-MB-330 (breast, adherent)",0.948,> 10.2 µM,0.968,> 1.02 µM,0.952,> 10 µM,0.591,1.84 µM
"JHH-4 (liver, adherent)",0.814,5.57 µM,0.931,> 1.02 µM,0.964,> 10 µM,0.618,2.11 µM
"HCC1143 (breast, adherent)",0.836,> 10.2 µM,0.962,> 1.02 µM,0.914,> 10 µM,0.777,9.26 µM
"OVCAR-8 (ovary, adherent)",0.838,5.92 µM,0.989,> 1.02 µM,0.857,6.82 µM,0.731,4.17 µM
"VAL (B-cell lymphoma, suspension)",0.462,0.505 µM,0.984,> 1.02 µM,0.905,> 10 µM,0.664,2.86 µM
"C3A (liver, adherent)",0.922,> 10.2 µM,0.98,> 1.02 µM,0.91,> 10 µM,0.682,3.29 µM
"LoVo (large intestine, adherent)",0.918,> 10.2 µM,0.984,> 1.02 µM,0.883,> 10 µM,0.313,0.298 µM
"LN-229 (glioma, adherent)",0.986,> 10.2 µM,0.985,> 1.02 µM,0.896,> 10 µM,0.861,13.4 µM
"Capan-2 (pancreas, adherent)",0.935,> 10.2 µM,0.97,> 1.02 µM,0.924,> 10 µM,0.78,8.1 µM
"COLO-678 (large intestine, semi-adherent)",0.957,> 10.2 µM,0.965,> 1.02 µM,0.933,> 10 µM,0.807,11.2 µM
"HPAF-II (pancreas, adherent)",0.918,> 10.2 µM,0.975,> 1.02 µM,0.851,> 10 µM,0.712,4.83 µM
"SCC-9 (head and neck, adherent)",0.839,9.95 µM,0.958,> 1.02 µM,0.867,> 10 µM,0.908,> 16 µM
"CAL-51 (breast, adherent)",0.941,> 10.2 µM,0.99,> 1.02 µM,0.95,> 10 µM,0.625,2.1 µM

# The IC50 comes from the fitted curve, where viability falls to half of the control; where the fit passes the top or lowest dose, that dose stands as a limit. AUC, from the same fit, is the share of area under the viability curve across the 256-fold dose range; it is 1 without any effect and falls as sensitivity rises. A top dose marked as inferred comes from the curve model; the source does not state it.
